Source: PubChem BioAssay AID624417 (National Center for Advancing Translational Sciences (NCATS), 2012)
Where “and” joins values, the source holds several entries; their conditions need not be identical. Equal entries are not always repeated. About 6,400 (1.6%) of roughly 410,000 compounds were called active. The inconclusive results got no clear call from the source; some entries with a clear call stand among them for comparison. Calls follow the shape of the dose curve; as a rule, active = well fitted inhibition curve with a large enough effect; inconclusive = small, poorly fitted or top-dose-only effect; inactive = no such curve, though single readings can be large or run the other way. A potency beside an inconclusive call is a rough fit, not a confirmed value.

biological target: Glucagon-like peptide 1 receptor (Homo sapiens) (UniProt P43220); experiment: qHTS of GLP-1 Receptor Inverse Agonists (Inhibition Mode); settings: HEK293 GLP-1R CRE-luciferase, luminescence, 24 h, GLP-1R form is constitutively active; activity change, negative = inhibition: at 38.3 µM (top of the series) unless noted; also: nearly all actives have a fitted effect of over 55% in size
UniProt P43220, sequence (P43220 whole entry, looked up): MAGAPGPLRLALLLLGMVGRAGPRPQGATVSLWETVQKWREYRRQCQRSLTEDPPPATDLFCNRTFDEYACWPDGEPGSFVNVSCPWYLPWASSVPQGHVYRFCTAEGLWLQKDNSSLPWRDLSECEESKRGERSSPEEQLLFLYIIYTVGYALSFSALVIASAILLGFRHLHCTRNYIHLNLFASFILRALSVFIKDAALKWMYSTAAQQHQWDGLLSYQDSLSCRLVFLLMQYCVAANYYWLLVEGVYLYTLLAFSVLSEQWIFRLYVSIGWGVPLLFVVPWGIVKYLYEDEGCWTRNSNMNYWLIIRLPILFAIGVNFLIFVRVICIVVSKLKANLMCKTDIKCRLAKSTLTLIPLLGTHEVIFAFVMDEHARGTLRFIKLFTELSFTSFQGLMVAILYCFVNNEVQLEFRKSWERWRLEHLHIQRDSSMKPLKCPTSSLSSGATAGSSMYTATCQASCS
Method in brief: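 GLP-1R inverse agonism mode: basal reporter luminescence in engineered HEK293 cells measured after one day of compound exposure at 37 deg C, with a 12 min room-temperature detection step.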
% is scaled to controls: 0 for no effect and ±100 for the full control effect; potency is read from the fitted curve at half-maximal effect; tags tell the direction and shape of the fitted curve.

Potency, inconclusive:
Cc1ccc(CN2CCN(/N=C/C=C/c3ccccc3[N+](=O)[O-])CC2)cc1 11.2 µM [inhibitor, partial curve, poor fit]
CCOC(=O)C1(Cc2ccc(Cl)cc2)CCN(C(=O)c2ccoc2)CC1 12.6 µM [inhibitor, single point]
O=c1sc2ccccc2n1COc1ccc(Cl)cc1 22.4 µM [inhibitor, single point]
CCN(C(=O)c1cc(S(=O)(=O)N2CCCCC2)c[nH]1)c1ccc(OC)cc1 31.6 µM [inhibitor, single point] and 11.2 µM [inhibitor, partial curve, poor fit]
O=C(NCc1ccco1)c1cc(-c2ccccc2)c(N2CCOCC2)s1 17.8 µM [inhibitor, partial curve, poor fit]
Cc1nc(-c2ccc(C(=O)Nc3cccc(F)c3)cc2)cs1 12.6 µM [inhibitor, single point]
O=C(Nc1ccc2c(c1)OCCO2)C(CCc1ccccc1)N(Cc1ccccc1)Cc1ccccc1 (stereo unspecified) 11.2 µM [inhibitor, partial curve]
CCOC(=O)N1CCN(C(=S)NC(=O)c2cccc(OC)c2)CC1 28.2 µM [inhibitor, single point]
COCCn1c(=O)[nH]c2cc(C(=O)OC)ccc2c1=O 31.6 µM [inhibitor, single point]
CCCCN(CCCC)S(=O)(=O)c1ccc(NC(=O)c2c(-c3ccccc3)noc2C)cc1 12.6 µM [inhibitor, partial curve, poor fit]
S=C(Nc1cccc(Cl)c1)Nc1ccccc1Oc1ccccc1 14.1 µM [inhibitor, partial curve, poor fit]
Cc1cccc(OCC(=O)N/N=C/c2cn[nH]c2-c2ccc(Cl)c(Cl)c2)c1 8.91 µM [inhibitor, partial curve, poor fit]
CCCCN(CCCC)Cc1ccc(C(=O)NNC(=O)Nc2ccc(F)cc2)o1 7.94 µM [inhibitor, partial curve, poor fit]
Cc1ccc(NC(=O)CC2Sc3ccccc3NC2=O)c(C)c1 (stereo unspecified) 2 µM [inhibitor, full curve]
O=C(c1nc2ccc(Cl)cn2c1CNCC[C@@H]1C[C@@H]2C=C[C@H]1C2)N1CCCCCCC1 11.2 µM [inhibitor, single point]
CC1=C(C(=O)OCc2ccccc2)C(c2ccc(Cl)cc2)NC(=O)N1C (stereo unspecified) 12.6 µM [inhibitor, partial curve]
COc1ccc(-n2c(=O)c3c4c(sc3n(Cc3ccccc3)c2=O)CCC4)c(OC)c1 10 µM [inhibitor, partial curve, poor fit]
Cc1ccc(CN(C)C(=O)c2ccc(S(=O)(=O)N3CCCCCC3)cc2)o1 11.2 µM [inhibitor, partial curve, poor fit]
CC(=O)/C(C#N)=C1\NC(=O)C(Cc2ccc(C)c(C)c2)S1 (stereo unspecified) 5.01 µM [inhibitor, full curve]
Cc1nc2c(sc3nc(N4CCOCC4)c4c(c32)CC(C)(C)OC4)c(-c2ccccc2)c1C(=O)O 2 µM [inhibitor, full curve, poor fit]
COc1ccc(N2CCN(CC(O)COc3ccc(C)c(C)c3)CC2)cc1 (stereo unspecified) 31.6 µM [inhibitor, single point] and 10 µM [inhibitor, partial curve, poor fit]
Cc1ccc(-n2nc3c(=O)n(CC(=O)NCCc4ccc(Cl)cc4)nc(C)c3c2C)cc1 1 µM [inhibitor, partial curve, poor fit]
CC1(CCc2ccccc2)NC(=O)N(CC(=O)N2CCc3ccccc32)C1=O (stereo unspecified) 28.2 µM [inhibitor, single point]
CCOc1ccccc1NC(=O)C(OC(=O)c1ccc(CC)cc1)c1ccccc1 (stereo unspecified) 28.2 µM [inhibitor, single point]
Cc1cccc(NN=C2c3ccccc3-c3ccccc32)c1 11.2 µM [inhibitor, partial curve, poor fit]
COC(=O)c1ccc(NC(=O)c2cccc(N3C(=O)C4C5C=CC(C6CC56)C4C3=O)c2)cc1 (stereo unspecified) 2.24 µM [inhibitor, full curve, poor fit]
CCN1C(C(=O)c2ccccc2)=C(OC(=O)c2ccc(Cl)cc2)c2ccccc2S1(=O)=O 28.2 µM [inhibitor, single point]
CCOC(=O)c1sc(NNC(=O)c2ccc(F)cc2)nc1C 28.2 µM [inhibitor, single point]
O=C1c2ccccc2C(=O)c2c(NCCCN(CCO)CCO)cccc21 11.2 µM [inhibitor, partial curve, poor fit]
Cc1cccc(OC(C)C(=O)N2CCC(c3nc4ccccc4o3)CC2)c1C (stereo unspecified) 10 µM [inhibitor, single point]
COc1ccccc1N1CCN(C(=O)C(=O)c2c[nH]c3ccccc23)CC1 12.6 µM [inhibitor, partial curve]
CC12CCC(C(=O)N(CCCN3CCN(Cc4ccccc4)CC3)C1=O)C2(C)C (stereo unspecified) 5.62 µM [inhibitor, full curve, poor fit]
COc1ccc2c(c1)c(CC(=O)NCc1cc([N+](=O)[O-])ccc1O)c(C)n2C(=O)c1ccc(Cl)cc1 28.2 µM [inhibitor, single point]
Cc1cc(Nc2cccc(F)c2)nc(NCc2ccccc2)n1 11.2 µM [inhibitor, partial curve, poor fit]
Cn1nnc2cc(C(=O)NCCC3=CCCCC3)ccc21 11.2 µM [inhibitor, single point]
O=C(NC(c1ccccc1)c1ccccc1)c1ccc(Br)o1 1 µM [inhibitor, full curve]
O=C(CSc1nnc(-c2ccccc2Cl)o1)N1CCCCC1 11.2 µM [inhibitor, single point]
CCc1ccccc1NC(=O)N1CC(CC)Oc2ccc(Cl)cc21 (stereo unspecified) 11.2 µM [inhibitor, single point]
CCc1ccc(Sc2cc(C(=O)NCCN3CCOCC3)c3ccccc3n2)cc1 22.4 µM [inhibitor, single point]
CCCN1CCC(=O)N([C@H](CSc2ccc(C)cc2)c2ccccc2)CC1 31.6 µM [inhibitor, partial curve, poor fit]
CCN(CCNC(=O)c1cc(C)nn1-c1ccccc1)c1ccccc1 28.2 µM [inhibitor, single point]
Cc1cc(Cl)ccc1OCC(=O)Nc1ccc(CN2CCOCC2)cc1 15.8 µM [inhibitor, single point]
CNc1nc(Nc2ccc(C)c(Cl)c2)c2cnn(C)c2n1 11.2 µM [inhibitor, single point]
CCc1nc(Sc2nc(C)cc(C)n2)c2oc3ccccc3c2n1 31.6 µM [inhibitor, partial curve, poor fit]
O=C(Nc1cccc(Br)c1)c1cccc(OC(=S)N2CCOCC2)c1 22.4 µM [inhibitor, partial curve, poor fit]
Brc1cccc(CNc2nc3ccccc3n2CCN2CCOCC2)c1 15.8 µM [inhibitor, single point]
O=C1CSC(c2ccc(Cl)cc2)N1C1CCCCC1 (stereo unspecified) 22.4 µM [inhibitor, partial curve, poor fit]
O=C(NCCc1ccc(Cl)cc1)c1cc(-c2ccccn2)nc2ccccc12 12.6 µM [inhibitor, single point]
COC(=O)c1ccsc1NC(=O)C1COc2ccccc2O1 (stereo unspecified) 28.2 µM [inhibitor, single point]

Potency, inactive:
CC[C@H](C)[C@@H](CN[C@H](CCCCNC)CNC)NCC1CCCC1
Cc1ccc(C(=O)/C=C/N(C)C)cn1
COc1ccc(CNC(=O)CN(Cc2ccccc2F)C(=O)c2csnn2)cc1
COc1ccc(C(=O)Cn2cnc3ccccc3c2=O)c(OC)c1
Cc1nc2cc(Oc3nc(NCCN(C)C)nc4ccsc34)ccc2s1
CCc1nnc2c3ccccc3nc(Nc3ccc(F)cc3C)n12
CCOc1ccc(Br)cc1C1C(C(=O)Nc2ccccc2OC)=C(C)Nc2nnnn21 (stereo unspecified)
COc1cccc(CN2c3ccccc3-c3nc(SCC(=O)Nc4cccc(C)c4)ncc3S2(=O)=O)c1
CCC(=O)N1CCc2cc(Br)cc(S(=O)(=O)N3CCCC(C(=O)NC(C)(C)C)C3)c21 (stereo unspecified)

Potency, active:
Cc1cccc(CC(C)NC(=O)c2cc(COc3ccc(C)c(C)c3)on2)n1 (stereo unspecified) 10 µM
Cc1oc(-c2ccc(C(=O)N(C)Cc3ccccc3)cc2)nc1CN1CCc2ccccc21 11.2 µM

Activity change, negative = inhibition, inconclusive:
COc1ccc(/C=N/NC(=O)c2ccoc2C)cc1COc1c(C)cccc1C -33.4% [inhibitor]
